About 800 (1.6%) of roughly 50,000 compounds showed an effect of 50% or more. The list shows a part of the results.

The assay addresses Bcl-2-like protein 10 (Homo sapiens) (UniProt Q9HD36). Put plainly: TR3 peptide-Bcl-B binding displacers, biochemical primary FP assay, phenotype converters (AID 1240).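 Note: 0% = Bcl-B with tracer peptide and DMSO and 100% = tracer peptide lacking Bcl-B.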 Conditions: GST-Bcl-B / FITC-TR3 peptide fluorescence polarization; stronger effect = higher value; compound at 3.75 mg/L. In general terms: Fluorescence polarisation rises when a labelled molecule tumbles more slowly, as on binding a larger partner.
Chain of UniProt Q9HD36 (Q9HD36 whole entry, looked up): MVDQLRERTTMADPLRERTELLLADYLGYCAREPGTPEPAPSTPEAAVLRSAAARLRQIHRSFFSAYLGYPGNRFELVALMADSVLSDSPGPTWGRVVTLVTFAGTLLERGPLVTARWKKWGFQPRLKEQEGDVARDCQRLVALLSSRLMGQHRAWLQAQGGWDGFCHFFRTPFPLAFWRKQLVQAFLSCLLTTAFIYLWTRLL
Consider `Cc1cccc(OCC(=O)N/N=C\c2ccc(-c3cc([N+](=O)[O-])ccc3Cl)o2)c1C`, for which the displacement is -2%.

As to `C=CCC1(C#N)C(=S)NC2=C(C(=O)CC(C)(C)C2)C1C` (stereo not drawn), the displacement was -25.3%.

With `CC1(C)CC(=O)C2=C(C1)c1c(ccc3ccccc13)NC2c1cn[nH]c1-c1ccccc1` (stereo not drawn), the displacement was found to be 3.9%.

Turning to `CC1C(c2ccccc2)NC(c2ccccc2)C(C)C1(O)c1ccccc1` (stereo not drawn), the displacement is 11.1%.

In the case of `CCN(CC)C(=O)c1c(NC(=O)c2cccc(C)c2)sc2c1CCCCC2`, the displacement was -8.3%.

Consider `S=C1NC(c2ccccc2)=NCN1c1ccc(Br)cc1`, for which the displacement turned out to be 9.6%.

For `O=C(c1cc2n(n1)C(C(F)(F)F)CC(c1cccs1)N2)N1CCCC1` (stereo not drawn), the displacement was -1.2%.

On to `CCc1c(C)sc(NC(=O)c2c(-c3ccccc3)noc2C)c1C(N)=O`, for which the displacement was -9.1%.

Consider `O=C(N/N=C\c1cc(I)ccc1O)c1ccc(Br)cc1`, for which the displacement is 8.9%.

In the case of `Cc1ccc(S(=O)(=O)Nc2ccc(C(=O)CC(=O)Nc3ccccc3)cc2)cc1`, the displacement is -11.6%.

`CCCCCCNC(=O)C(NC(=O)c1ccccc1)C12CC3CC(CC(C3)C1)C2` (stereo not drawn): the displacement was -7.1%.

On to `CC1=NN(c2ccccc2)C(c2ccc(O)cc2)C1` (stereo not drawn), for which the displacement was 17.6%.

In the case of `COc1ccc(C(=O)/C=C/c2ccc(OC)c([N+](=O)[O-])c2)cc1`, the displacement is -2.6%.

On to `O=C1/C(=C\c2cc([N+](=O)[O-])cc(Br)c2O)SC(=S)N1c1cccc(Cl)c1`, for which the displacement was -27.5%.

Take `CCCCCCCCn1c(/N=C/c2cccc(OCC)c2O)nc2ccccc21`: the displacement turned out to be 0.3%.

Regarding `COc1ccc(OC(C)C(=O)Nc2ccc([N+](=O)[O-])cc2)cc1` (stereo not drawn), the displacement turned out to be 14.9%.

As for `CC1=C(C#N)c2nc(N)c(C#N)c(C)c2/C1=C\c1ccc(Cl)c(Cl)c1`, the displacement was 7.1%.

Consider `COc1ccc(C)cc1NC(=O)Cc1ccccc1[N+](=O)[O-]`, for which the displacement is 4.1%.

In the case of `CC1(C)Cc2c(sc3nc(SCC(N)=O)n(CCc4ccccc4)c(=O)c23)CO1`, the displacement is -7.7%.

For `c1ccc(Nc2ccc3nc4ccccc4nc3c2)cc1`, the displacement amounted to 8.9%.

For the compound `Cc1cccc(OCCNc2nc3c(c(=O)n(C)c(=O)n3C)n2C)c1`, the displacement was found to be 0.7%.

For the compound `CCOc1ccc(-c2cc(C)n3nc(C(N)=O)cc3n2)cc1`, the displacement was determined as 4.8%.

Regarding `O=C(COc1ccc(Cl)cc1)N1CCN(C(=O)c2cccs2)CC1`, the displacement was -10.4%.

As for `CN1C(=O)NC(=O)/C(=C\c2ccc(Cl)cc2)C1=O`, the displacement amounted to 1.4%.

With `CCOC(=O)c1c(NC(=O)Cc2ccc(Cl)cc2)sc(C(=O)Nc2ccccc2)c1C`, the displacement was -5.3%.

Consider `COc1ccc(N(CC(=O)Nc2ccc3ccccc3c2)S(=O)(=O)c2ccc(C)cc2)c(OC)c1`, for which the displacement was -1%.

In the case of `CN(CCCC(=O)O)S(=O)(=O)c1ccc2c(c1)Cc1cc(S(=O)(=O)N(C)CCCC(=O)O)ccc1-2`, the displacement was -0.2%.

With `O=c1oc(-c2ccccc2F)nc2c1cnn2-c1ccccc1`, the displacement turned out to be 3.8%.

Values taken from PubChem BioAssay AID1240 (Sanford-Burnham Center for Chemical Genomics, 2008).
